Measurements as given in paper PMC4336329 (PLoS ONE, 2015).
Out of some 310,000 compounds screened, about 14,000 (4.5%) showed an effect of 50% or more. Effects have a minus sign here. Some of the results follow.

These compounds were tested against human ether-à-go-go-related gene (hERG) potassium channel (human, UniProt Q12809) (assay: primary screen, population patch clamp on CHO cells stably expressing hERG).
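Note: peak tail current of the secondary pulse compared with the same well before compound.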

Sequence of human ether-à-go-go-related gene (hERG) potassium channel (Q12809 whole entry, looked up): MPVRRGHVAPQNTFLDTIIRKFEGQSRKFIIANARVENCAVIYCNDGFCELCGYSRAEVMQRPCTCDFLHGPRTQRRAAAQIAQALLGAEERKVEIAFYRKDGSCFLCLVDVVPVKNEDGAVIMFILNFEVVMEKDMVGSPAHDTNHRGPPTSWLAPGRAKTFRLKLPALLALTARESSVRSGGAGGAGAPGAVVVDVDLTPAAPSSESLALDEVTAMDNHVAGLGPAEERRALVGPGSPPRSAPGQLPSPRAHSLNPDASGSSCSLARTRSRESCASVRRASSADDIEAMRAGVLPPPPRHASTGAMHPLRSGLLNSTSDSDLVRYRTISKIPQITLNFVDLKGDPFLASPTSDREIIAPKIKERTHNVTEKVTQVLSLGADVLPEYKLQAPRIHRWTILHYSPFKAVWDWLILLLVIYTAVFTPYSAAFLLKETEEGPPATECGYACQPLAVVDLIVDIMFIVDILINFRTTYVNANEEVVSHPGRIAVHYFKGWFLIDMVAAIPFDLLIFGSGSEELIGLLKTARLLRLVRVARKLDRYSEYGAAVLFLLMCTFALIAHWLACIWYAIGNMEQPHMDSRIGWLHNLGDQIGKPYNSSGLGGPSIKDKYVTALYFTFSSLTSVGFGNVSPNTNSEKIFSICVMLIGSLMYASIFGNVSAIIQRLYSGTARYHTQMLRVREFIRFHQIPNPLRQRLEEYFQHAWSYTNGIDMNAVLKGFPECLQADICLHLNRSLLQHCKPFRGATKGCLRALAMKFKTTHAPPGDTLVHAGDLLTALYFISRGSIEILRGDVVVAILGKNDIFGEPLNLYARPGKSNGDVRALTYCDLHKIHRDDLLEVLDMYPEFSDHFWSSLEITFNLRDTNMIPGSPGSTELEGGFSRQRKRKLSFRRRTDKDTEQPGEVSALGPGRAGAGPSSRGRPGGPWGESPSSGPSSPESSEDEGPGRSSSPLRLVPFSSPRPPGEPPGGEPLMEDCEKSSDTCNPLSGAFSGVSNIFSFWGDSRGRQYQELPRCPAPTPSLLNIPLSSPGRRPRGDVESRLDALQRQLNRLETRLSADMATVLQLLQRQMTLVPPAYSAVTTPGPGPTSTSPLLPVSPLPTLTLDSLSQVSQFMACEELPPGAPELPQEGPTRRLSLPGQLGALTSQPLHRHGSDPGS

Structure (SMILES)	hERG current change (%, negative = inhibition) at 10uM [%]
CC(=O)Nc1ccc(N2C(=O)CC(N3CCN(Cc4ccc5c(c4)OCO5)CC3)C2=O)cc1 (stereo not shown)	1.61
COc1cc([N+](=O)[O-])ccc1NC(=O)C[n+]1cccc(C(C)=O)c1.[Cl-]	25.5
CC1CCCCC12NC(=O)N(CC(=O)Nc1ccccc1N1CCOCC1)C2=O (stereo not shown)	6.07
O=C(C1CC1)N1N=C(c2cccc(Br)c2)CC1(O)C(F)(F)F (stereo not shown)	5.01
Cc1cc(Cl)ccc1OCC(O)CNCCc1ccc(S(N)(=O)=O)cc1 (stereo not shown)	-67.6
COc1ccc(NCC(=O)n2c(C)c(C)c3ccccc32)cc1	1.56
O=C(/C=C/c1ccccc1)c1ccccc1	11.3
COc1ccccc1NC(=O)C1CCCN1C(=O)Nc1ccc(F)cc1 (stereo not shown)	4.61
COc1ccc(NC(=O)c2ccc3c(c2)CCN3S(=O)(=O)c2ccccc2)c(OC)c1	11.8
CCn1c(C)nc2cc(S(=O)(=O)Nc3ccc(C)cc3)ccc21	-3.26
COc1cc(C(=S)N2CCOCC2)ccc1O	29.3
Cc1cc(NC(=O)COC(=O)C2CCN(S(=O)(=O)c3c(Cl)cccc3Cl)CC2)no1	-22
COc1ccccc1-c1cc(N)n[nH]1	26.7
COc1ccc(S(=O)(=O)c2ccc(OC)cc2)cc1	-12.5
CCCN1C(=O)/C(=C/c2ccco2)SC1=Nc1ccc(OC)cc1	-12.7
COc1ccc(CCNC(=O)C2CCCN(C(=O)c3ccc(Cl)cc3)C2)cc1 (stereo not shown)	-17.2
CCOc1ccc(CCNC(=O)COC(=O)c2nccnc2N)cc1OCC	4.86
CC(=O)c1c(C)[nH]c(C(=O)OCC(=O)NCC(C)C)c1C	-3.44
Cc1cc(NC(=O)C(Cl)(Cl)Cl)no1	12.7
CCC(C)C(NC(=O)CCC(=O)OCC(=O)[C@@]1(O)CCC2[C@@H]3CCC4=CC(=O)C=C[C@]4(C)C3[C@@H](O)C[C@@]21C)C(=O)O (stereo partly shown)	19.1
CCCCSc1nc2ccccc2[nH]1	6.14
COc1ccc(C/C(N)=N/OC(=O)c2ccco2)cc1OC	20.4

Structure (SMILES)	hERG current change (%, negative = inhibition) at 10uM [%]
Cc1ccc(C(=O)C(C)OC(=O)CCS(=O)(=O)c2ccc(C)cc2)cc1 (stereo not shown)	-6.15
COCc1cc(C)nc(N2CCN(c3ccccc3)CC2)c1C#N	-13.7
Cc1onc(-c2ccccc2)c1NC(=O)N(Cc1ccccc1)C(C)C	11.8
Cc1ccc(CNC(=S)N(C)C)cc1	8.38
O=C(CCCC(=O)OCC(Cl)=C(Cl)Cl)Nc1ccccc1	-2.93
O=S(=O)(NCC1CCCO1)c1ccc(S(=O)(=O)N(Cc2ccccn2)C2CC2)cc1 (stereo not shown)	-13.8
CCCc1ccc(C(=O)/C=C/N(C)C)cc1	-11.4
CC1CCN(c2ccccc2NC(=O)c2ccc(Br)o2)CC1	-0.73
Cc1ccc(OCCNC(=O)c2ccccc2OCc2c(C)noc2C)cc1	19.3
Cc1ccc(C)c(N(C)S(=O)(=O)c2ccc3c(c2)oc(=O)n3C)c1	9.12
Cc1cccc(NC(=O)C2CCCN(S(=O)(=O)c3c(C)nn(C)c3C)C2)n1 (stereo not shown)	5.85
O=C(O)c1ccc(/C=N/NC(=O)c2ccc(CN3c4cccc5cccc(c45)S3(=O)=O)cc2)cc1	21.7
O=C(CSc1nnnn1C1CCCCC1)N1CCN(C(=O)c2ccco2)CC1	1.08
C/C(=N\NC(=O)c1ccccc1O)c1c(O)n(Cc2ccccc2)c(=O)[nH]c1=O	-2.37
O=C(N/N=C/C1CC2CCC1C2)c1c[nH]c2ccccc12 (stereo not shown)	1.38
COc1cccc(CNc2nc3ccccc3n2C)c1O	0.402
COc1ccc(C2NC(=O)N(CCCC(=O)O)C(C)=C2C(=O)OCc2ccccc2)cc1 (stereo not shown)	13.9
COc1ccccc1OCCOCCOc1c(C)cc(C)cc1Br	8.26
O=C1CN(C(=O)/C=C/c2ccc(Cl)cc2)c2ccccc2N1	-75.2
Cc1ccc(-c2ccc(/C=C3\C(=O)ON=C3c3ccccc3)o2)c([N+](=O)[O-])c1	-26.7
CCCC(=O)c1ccc(N2CCN(C(=O)OCC)CC2)c(F)c1	-14.2
Cc1ccc(N2CC(C(=O)Nc3cccnc3)CC2=O)cc1C (stereo not shown)	3.11

Structure (SMILES)	hERG current change (%, negative = inhibition) at 10uM [%]
Cc1nc2ccccc2nc1OCC(=O)Nc1ccccc1	14.8
CN(C)C(=S)SCC(=O)Nc1ccc(Cl)cc1Cl	-2.67
O=[N+]([O-])c1cc(S(=O)(=O)Nc2ccccc2)ccc1NCc1ccccc1	7.3
NNC(=S)Nc1ccc(S(=O)(=O)N2CCOCC2)cc1	14.9
COc1ccc2nc(NC(=O)Cn3cnc4ccccc4c3=O)sc2c1	-4.49
CCOC(=O)C1CCN(S(=O)(=O)c2c[nH]c(=O)[nH]c2=O)CC1	-31.6
O=C(Nc1nnc(CCS(=O)(=O)c2ccc(Br)cc2)s1)c1ccc([N+](=O)[O-])cc1	-0.687
CCN(CC)S(=O)(=O)c1ccc(C)c(N=C=S)c1	-0.324
O=S1(=O)CC2NC(=S)N(c3cccc(Br)c3)C2C1 (stereo not shown)	11.5
N#C/C(=C(O)\C=C\c1ccccc1)c1nc2ccccc2[nH]1	13.6
CN1CC(=O)N(C)c2ncn(Cc3ccccc3)c2C1=O	3.75
COc1cc(NC(=O)CN2C(=O)C(C)N(c3ccc(C)cc3)C2=O)cc(OC)c1 (stereo not shown)	-7.64
COC(=O)/C=C1\SC(N2CCOCC2)=C(c2ccc(OC)cc2)C1=O	21.1
COc1cc2c(cc1OC)/C(=C/c1ccc(Br)cc1)C(=O)OC2	-6.2
CC(=O)Sc1nc(-c2ccccc2)[nH]c1S(=O)(=O)c1ccc(C)cc1	-0.451
C/C(=N\NC(=O)c1ccccc1O)c1c(O)cc(C)oc1=O	-7.48
CCOC(=O)N1CCN(S(=O)(=O)N2CCCC(C(=O)NCCc3ccc(OCC)c(OCC)c3)C2)CC1 (stereo not shown)	-6.03
COc1ccc(NC2CC(=O)NC2=O)cc1 (stereo not shown)	5.24
CC1=C(/C=N/Nc2ccc([N+](=O)[O-])cc2[N+](=O)[O-])C(C)(C)CCC1	9.36
Cc1cc(=O)oc2cc(OCCSCCN3CCOCC3)ccc12	6.19
COc1ccc(NC(=O)CN2CCN(CC(=O)Nc3ccccc3Cl)CC2)c(OC)c1	-78
COc1ccc(-c2cc3ccccc3oc2=O)cc1NC(=S)NC(=O)c1ccc2c(c1)OCCO2	-0.141

Structure (SMILES)	hERG current change (%, negative = inhibition) at 10uM [%]
CN1CCN(C(=O)c2ccccc2NS(=O)(=O)c2ccc(F)cc2)CC1	10.4
Cc1cc(C2(c3ccc(O)c(C)c3)OC(=O)c3ccccc32)ccc1O	-25.9
CCC(C)NC(=O)C1CCC(=O)N(c2cc(OC)c(OC)c(OC)c2)C1c1ccc(OC)cc1 (stereo not shown)	22.2
CSc1ccccc1C(=O)C1CCCN(S(=O)(=O)c2c(C)noc2C)C1 (stereo not shown)	1.91
C[C@@H](NC(=O)[C@@H]1Cc2ccccc2CN1C(=O)OC(C)(C)C)C(=O)NCC1CCCO1 (stereo partly shown)	9.8
CC(=O)c1ccc(OCC(O)CN2CCN(c3ccccn3)CC2)cc1.Cl (stereo not shown)	-25.8
CN(NC(=O)Nc1ccc(Cl)cc1)c1ncc(C(F)(F)F)cc1Cl	12.6
COc1ccc(C(=O)CN2CCN(c3ccc(Cl)cc3)CC2)cc1OC	-44.6
O=C1Nc2ccc(S(=O)(=O)N3CCCC3C(=O)O)c3cccc1c23 (stereo not shown)	21.5
COc1cccc(CN(C)C(=O)C2CCC(=O)N(Cc3cccc(F)c3)C2)c1 (stereo not shown)	2.77
CCCc1cc(-n2ccnc2C)n2c(nc3ccccc32)c1C#N	0.616
COc1ccc(-c2cc(=O)oc3cc(OCC(=O)NCCN4CCOCC4)ccc23)cc1	-19.8
O=C(COc1ccc2ccc(=O)oc2c1)NC1CCN(Cc2ccccc2)CC1	-55.2
COc1cc(NC(=O)CN2CCN(c3ccccc3F)CC2)cc(OC)c1	-10.2
O=C(COc1ccc(Cl)cc1[N+](=O)[O-])N1CCCCC1	-13.7
COc1ccc(-c2ccnc3c(Br)c(C)nn23)cc1	2.25
CC(C)NC(=O)COc1ccc2c(c1)C(=O)CC(C)(C)O2	18.5
COc1cc(O)c(C(CCN2CCOCC2)c2ccc3c(c2)OCO3)c(OC)c1 (stereo not shown)	-59.5
CC1=Nc2ccc(Br)cc2C(c2ccccc2)N1CC(=O)O (stereo not shown)	33.7
COC(=O)c1cc2ccccc2n1Cc1ccc(Cl)nc1	12.3
CCOc1ccccc1N1C(=O)CC(Sc2ncccc2C(=O)O)C1=O (stereo not shown)	21.6
O=[N+]([O-])c1cccc(C(=Nc2cccc(Cl)c2)NO)c1	-20
